# Test results published in PubChem BioAssay AID1347073 (National Center for Advancing Translational Sciences (NCATS), 2019).
# The whole screen tested about 45,000 compounds, of which about 200 (0.44%) were called active. About 7% were inconclusive and are not listed. The call rests on the fitted dose curve; in most records, active means well fitted activation curve with a large enough effect; inconclusive means small, poorly fitted or top-dose-only effect; inactive means no such curve, though single readings can be large or run the other way. Some of the results follow.
# Experiment: qHTS of TDP-43 Inhibitors: NCGC Sytravon Library Screen; further: 0% is about no effect; nearly all actives have a fitted effect of over 55% in size
# Conditions: yeast TDP-43 toxicity rescue, BacTiter-Glo growth, 24 h; series mostly up to 46.1 µM; growth rescue (activation): at the top concentration
# In short: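 TDP-43-expressing yeast, pregrown in raffinose, seeded at OD600 0.02 in galactose medium with compound for 24 hr at 30 deg C. Growth read by BacTiter-Glo luminescence, so rescue of toxicity appears as activation.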
row,Compound,growth rescue (activation)
1,CC(C)c1ccc(NC(=O)C2Cc3c(-c4cccc(C(N)=O)c4)ccnc3O2)cc1 (stereo not drawn),inactive: 7.22%
2,CCc1ccc(/C(C)=N/NC(=O)CNC(=O)/C=C/c2ccco2)cc1,inactive: 26.2%
3,O=C(Nc1cccc(C(F)(F)F)c1)c1cc(-c2ccco2)on1,inactive: 2.53%
4,CC(C)(C)NC(=O)CSc1nncn1NCc1c(Cl)cccc1Cl,inactive: -2.17%
5,O=C(CNc1cccc([N+](=O)[O-])c1)NCCCc1ccccc1,inactive: -1.69%
6,COc1ccccc1N(CC(=O)Nc1cc(S(=O)(=O)N(C)C)ccc1C)S(=O)(=O)c1cccs1,inactive: 15.2%
7,O=C(CN1CCN(Cc2ccccc2)CC1)Nc1ccc(S(=O)(=O)N2CCOCC2)cc1,inactive: -0.58%
8,COCCCN(C(=S)Nc1cccc(Cl)c1)C(C)c1ccncc1 (stereo not drawn),inactive: 27.4%
9,O=C(COC(=O)c1ccc([N+](=O)[O-])s1)NC(=O)NCc1ccccc1,inactive: 14.6%
10,C[n+]1cc[nH]c1SCC(=O)c1ccc(Cl)cc1,inactive: 15.8%
11,CCN(C(=O)c1cc2cccc(OC)c2oc1=O)C1CCCCC1,inactive: 28.9%
12,COc1ccc(C(=O)NNC(=O)C(=O)Nc2cccc3ccccc23)cc1,inactive: 11.1%
13,O=C(c1ccc2c(c1)OCO2)N1CCN(c2ncccn2)CC1,inactive: -4.18%
14,COc1ccc(N(CC(=O)NCc2ccco2)C(=O)CCC(=O)Nc2nccs2)cc1,inactive: 5.68%
15,CC(=O)n1cc(N(C(=O)CCl)c2ccccc2)c2ccccc21,inactive: 3.9%
16,Cc1onc(-c2ccccc2Cl)c1C(=O)NC(=S)NCc1cccnc1,inactive: 5.01%
17,COc1cccc(/C(O)=C/c2nc3ccc(C(=O)NCCc4ccc(Cl)cc4)cc3[nH]c2=O)c1,inactive: 17.3%
18,CCOc1ccc(NS(=O)(=O)c2ccc(NC(=O)c3cccnc3)c(OC)c2)cc1,inactive: 1.19%
19,CCOc1ccc(CN2CCN(Cc3ccc4c(c3)c3ccccc3n4CC)CC2)cc1,inactive: 5.17%
20,Cn1c(=NC(=O)C2CCCCC2)sc2cc([N+](=O)[O-])ccc21,inactive: -0.831%
21,Cc1cccc(NC(=O)CN2CCN(C(=O)c3cnn(Cc4ccccc4)c3)CC2)c1C,inactive: 13.3%
22,Cc1ccc(C2C(C#N)=C(N)OC3=C2C(=O)CCC3)s1 (stereo not drawn),inactive: 4.15%
23,Cc1cc(NC(=O)CC(F)(F)F)n(-c2ccccc2)n1,inactive: -2.16%
24,COc1ccc2c(COC(=O)[C@H](C)NS(=O)(=O)c3ccccc3F)cc(=O)oc2c1,inactive: 5.68%
25,Cc1cccc(C)c1NC(=O)NC1(C(=O)N2CCN3CCCC3C2)CCCCC1 (stereo not drawn),inactive: 3.43%
26,Cc1cc(C)nc(N/N=C/c2c(CO)cnc(C)c2O)n1,inactive: 15%
27,COc1ccc(-n2nc(C(=O)NCC(=O)N3CCN(c4ccccc4F)CC3)c3ccccc3c2=O)cc1,inactive: -9.63%

row,Compound,growth rescue (activation)
1,COc1cc(C(=O)Oc2cccc(/C=N/NC(=O)c3cc(C)[nH]n3)c2)cc(OC)c1OC,inactive: 2.54%
2,Cc1ccc2cc(COC(=O)c3ccco3)c(=O)[nH]c2c1,inactive: 5.18%
3,COc1cccc(/C=N/N2CCOCC2)c1O,inactive: -8.53%
4,CN(CC(=O)Nc1ccc(F)c(F)c1F)C(=O)/C=C/c1ccc(Cl)cc1,inactive: 4.06%
5,Cc1ccc(NC(=O)c2oc3ccc(S(=O)(=O)N4CCOCC4)cc3c2C)c(C)c1,inactive: -0.0153%
6,CC(=O)NCCC(=O)N1CCCC(C(=O)c2ccc3c4c(cccc24)CC3)C1 (stereo not drawn),inactive: 0.344%
7,O=C(/C=C/Nc1ccccc1O)c1ccco1,inactive: -19.7%
8,CCCN(CCC)c1nc(-c2ccccn2)nc2ccccc12,inactive: 12.2%
9,Cc1ccc(NC(=O)c2c(-c3ccccc3Cl)noc2C)nc1,inactive: 11.1%
10,COC(=O)C1CCN(CC(=O)NC(=O)NC2CCCCC2)CC1,inactive: 5.77%
11,CN(Cc1cnn(C)c1)C(=O)CC1C(=O)NCCN1Cc1cccc(Oc2ccccc2)c1 (stereo not drawn),inactive: -5.36%
12,Cc1cc(C)n(CCNc2nc3nonc3nc2N2CCCCC2)n1,inactive: -1.56%
13,CCn1c(SCC(=O)N/N=C/c2ccc(C)o2)nnc1-c1ccc(C(C)(C)C)cc1,inactive: -4.54%
14,COCCNC(=O)C1CCCN(C(=O)c2cncc(Br)c2)CC1 (stereo not drawn),inactive: -5.58%
15,NC(=O)Cn1c(=O)n(CCCCCC(=O)NCc2ccc3c(c2)OCO3)c(=O)c2sccc21,inactive: 2.13%
16,O=S(=O)(Nc1nc2ccccc2nc1-[n+]1ccccc1)c1ccc(Cl)cc1,inactive: 10.8%
17,COc1cc(CN2CCN(Cc3ccc(C)cc3)CC2)c([N+](=O)[O-])cc1OC,inactive: -5.42%
18,COc1ccc2nc(SCC(=O)Nc3ccccc3C#N)[nH]c2c1,inactive: -0.313%
19,CSCCC(NC(N)=O)C(=O)Nc1cccc(C#N)c1 (stereo not drawn),inactive: -0.217%
20,CS(=O)(=O)N(CC(=O)NCCSCc1c(F)cccc1Cl)c1ccc2c(c1)OCO2,inactive: 19.8%
21,Cc1cc(NS(=O)(=O)c2ccc(NC(=O)Nc3cccc(C(F)(F)F)c3)cc2)no1,inactive: -5.91%
22,CCOC(=O)Cc1ccc(NC(=O)c2ccc([N+](=O)[O-])cc2)cc1,inactive: 5.99%
23,COCCNc1nc(NCCN2CCNC2=O)c2sc(-c3ccccc3)cc2n1,inactive: 0.347%
24,Cc1ccccc1/C=N/NC(=O)CSc1nc2ccccc2o1,inactive: 9.53%
25,COc1ccccc1/C=C1\SC(=S)N(CCC(=O)Nc2ccc(C(=O)O)c(O)c2)C1=O,inactive: 7.33%
26,c1ccc(-n2c(SCC3CCCCO3)nnc2-c2cnccn2)cc1 (stereo not drawn),inactive: 1.22%
